± gives the standard deviation of the averaged measurements. This is one part of the list.

The subject of the assay is PfAP2-I AP2 domain 3 (GST-tagged). The assay can be described thus: gcPBM binding intensity (ln(normalized median fluorescence intensity)); higher = stronger DNA binding. An outline of the steps:
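In this array assay, P. falciparum DNA-binding domains with a GST tag, expressed in E. coli, were applied for 1 h to primer-extended double-stranded 36-bp intergenic genomic probes and negative controls on an Agilent 4 × 180k array. Bound protein was visualised with Alexa488 anti-GST antibody at 488 nm. Binding intensity is the highest Masliner-normalised natural-log median intensity across replicate spots of either probe orientation.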
For “TATGCGTATATATAAATACACACCAAATGTTAATAT [CACACA_site1713]”, the “gcPBM binding intensity (ln)” value worked out at 8.2 ± 0.76. Regarding “CCATTTACATTGTGAAGTACTAAAAAAAAATGTAGA [XGTACX_site7882]”, the “gcPBM binding intensity (ln)” value was 7.94 ± 0.62.

Take “ACAAGGAATATAAAAAGTACATAAAATACATAAAAA [XGTACX_site1217]”: the “gcPBM binding intensity (ln)” value amounted to 7.91 ± 0.74. For “ATATAAATATAAATATATATGTATAAATATAAATAT [CACACA_negctrl_site247]”, the “gcPBM binding intensity (ln)” value stood at 7.37 ± 0.44. For “TATGGATGTATTCATACATGCACACGTACATATTTA [TGCATGCA_site991]” the value was 8.31 ± 0.25; for “ATAATTTGATGGTTAACACACATATATATTATATAT [CACACA_site2449]”, 7.88 ± 0.69.

Regarding “TAAAAAATGTTATATACACACAGTATAAAAAAAAAT [CACACA_site7808]”, the “gcPBM binding intensity (ln)” value is 7.77 ± 0.73.

On to “CCACGTATAATATGTACACACACATAAATACAAAAA [CACACA_site4660]”, for which the “gcPBM binding intensity (ln)” value turned out to be 8.28 ± 0.028.

In the case of “AATTAAATTATAAGCACACACATATATATATATATA [CACACA_site3351]”, the “gcPBM binding intensity (ln)” value turned out to be 9.39 ± 0.49. Consider “CTTATTTCCTTTTGTAGTACCTTATAATATATATAA [XGTACX_site8873]”, for which the “gcPBM binding intensity (ln)” value worked out at 8.28 ± 0.48. In the case of “GGGAAGTAGTAGTAATGTACTTATTTATTATGTGAC [XGTACX_site3985]”, the “gcPBM binding intensity (ln)” value worked out at 7.97 ± 0.56.

Turning to “TTATATATTTTTTGCACACCAAAAAAGAGAATATTC [CACACA_site2730]”, the “gcPBM binding intensity (ln)” value amounted to 9.525 ± 0.021.

As to “TTCTATTTGTAAAATTGTACAAAATAAATAACAAAA [XGTACX_site1007]”, the “gcPBM binding intensity (ln)” value came to 7.84 ± 0.43.

For “TAATAATAGTACTCACATCAAAGTATTATTAAAAAT [TGCATGCA_negctrl_site496]”, the “gcPBM binding intensity (ln)” value stood at 7.83 ± 0.34. For the sequence “GCATTTCTACTAAAAATACACACGATGATACAACGA [CACACA_site1756]”, the “gcPBM binding intensity (ln)” value came out at 7.74 ± 0.64.

On to “TATAAATATAAATACACACACATATATATTATATAT [CACACA_site4496]”, for which the “gcPBM binding intensity (ln)” value worked out at 7.59 ± 0.38. As for “ATATATATATATATGTGTACATAATAACTTTGCTTA [XGTACX_site1255]”, the “gcPBM binding intensity (ln)” value amounted to 9.32 ± 0.34. The figure for “ACCTATTTCAAACACACACACACACTAGCAAACATA [CACACA_site4695]” is 8.38 ± 0.42; for “TATATATATATATGTTGTACATATTTAAATGTTTAT [XGTACX_site5437]” it is 9.39 ± 0.39. Consider “ACAAAAAAGTAAAAAGTGCATGTAAAATATAAGTAT [GTGCAC_site9438]”, for which the “gcPBM binding intensity (ln)” value was determined as 9.52 ± 0.4. For “AATAAATCTTTTTGTTGTACTAAAAATATTATTAGC [XGTACX_site3335]”, the “gcPBM binding intensity (ln)” value turned out to be 7.62 ± 0.22. For “TTAATATATTATATTTGTACATATATATATATACAA [XGTACX_site4798]”, the “gcPBM binding intensity (ln)” value was determined as 7.57 ± 0.3. The figure for “AAATTGTGTTCATCAGCACACACAACATCATGTAAT [CACACA_site8556]” is 7.84 ± 0.64; for “CGAAAGAAAAAAAGCACACACAGTTTTGAGCAATGA [CACACA_site2109]” it is 7.59 ± 0.93; for “ACACATATGACAAATAGTACATAAATATATAAATAT [XGTACX_site7141]” it is 7.79 ± 0.28. For “TAAATATATAATTGTAGTACTGTTTTATGTTCATAA [XGTACX_site1020]” the value was 7.64 ± 0.18; for “AAAAAATTTCAAATAACACACACTAATATATATATG [CACACA_site1426]”, 7.76 ± 0.45; for “AATATTCACATTTGTTGTACATTCCTAGTTATATAA [XGTACX_site491]”, 8.24 ± 0.49. For “AAGGAAAATTTTTGGTGTACACAAAAAAATCCAAAA [XGTACX_site3596]” the value was 8.46 ± 0.057; for “TAAACAGATATATTTTGTACATATTGTATATTTTGT [XGTACX_site713]”, 7.38 ± 0.42; for “TATATTAATGTTCATAGTACGTATGATTAGGAAAAA [XGTACX_site616]”, 8.09 ± 0.66. In the case of “ACATATATGTATAATACACACACTAATATATAATTG [CACACA_site1966]”, the “gcPBM binding intensity (ln)” value amounted to 7.86 ± 0.42. For “ATTTAAAAAAAAACGGAATTTTTTTTTTTTTTAAAG [XGTACX_negctrl_site91]”, the “gcPBM binding intensity (ln)” value came out at 7.33 ± 0.41. The figure for “ATATTCATATATTTACGTACATACATTTATATATTT [XGTACX_site7644]” is 8.04 ± 0.54; for “GGAAAGACAGTTCACAGTACCCAGGAAATCTGCGGA [XGTACX_site4933]” it is 8.54 ± 1.2. For “TTTAGTTTTTATATAGCACACATATTGTGATTATGT [CACACA_site8316]”, the “gcPBM binding intensity (ln)” value is 8.96 ± 0.16. The figure for “AATTTATAAAAGAAGAGGACACATATAAATATAAAT [XGTACX_site59]” is 7.75 ± 0.62. The figure for “TATTAATGATAAGAATATTTTATATGATACATGCAT [CACACA_negctrl_site923]” is 7.46 ± 0.68; for “TATCTTTATATATAGTGTACACATTAAACAAATCTC [XGTACX_site7381]” it is 8.22 ± 0.25. For “TATAAATAAATATGTACACACATATATACCTTTCAT [CACACA_site7291]” the value was 7.82 ± 0.28; for “AATAATTAACAAAAAAAAAAAAAAAAAAAAAAAAAA [GTGCAC_negctrl_site255]”, 8.22 ± 0.71. “TATGTATTATATATTTGTACTCATTCTAATTCCTTC [XGTACX_site7294]”: the “gcPBM binding intensity (ln)” value amounted to 7.66 ± 0.45. The figure for “TCTATACCTATTCTTACACACATATGTATAAATATA [CACACA_site6407]” is 8.12 ± 0.5; for “TTGACAACTCTTTTCATACACACAAAAAAAAAAAAA [CACACA_site2362]” it is 7.95 ± 0.57; for “ACTAAAAAAATAAACACACAGATTTATATAATATAT [CACACA_site4884]” it is 7.75 ± 0.38.
